# Assay results published in the supplement of paper PMC8728848.
# The list shows a part of the results.
# B1: RVL (Remusatia vivipara), B5LYJ9 (protein)
# chain: MAKLLLFLLPAILGLLVPRSAVALGTNYLLSGQTLDTEGHLKNGDFDLVMQDDCNLVLYNGNWQSNTANNGRDCKLTLTDYGELVIKNGDGSTVWKSGAQSVKGNYAAVVHPDGRLVVLGPSVFKIDPWVRGLNSLRFRNIPFTNNLLFSGQVLYGDGRLTAKNHQLVMQGDCNLVLYGGKYGWQSNTHGNGEHCFLRLNHKGELIIKDDDFKTIWSSRSSSKQGEYVLILQDDGFGVIYGPAIFETSSKRSIAAS
# Key:
# Experiment in all cases: glycan array binding signal (z-score within array); higher = stronger binding
# Conditions in all cases: glycan notation: IUPAC condensed, linker removed
# [1] = target: Fuc(a1-2)[Gal(a1-3)]Gal(b1-4)[Fuc(a1-3)]Glc
# Outline: (§1)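 The binding signal is a Z-score computed within each array. Data were drawn from 3228 arrays in the Consortium for Functional Glycomics database, restricted to those with a known protein sequence. Scores were averaged over arrays of the same protein sequence at different concentrations or buffers, and over linkers, and negative values can be taken as non-binding.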
# [2] = target: Fuc(a1-2)[Gal(a1-3)]Gal(b1-4)[Fuc(a1-3)]GlcNAc
# Outline: as §1
# [3] = target: Fuc(a1-2)[Gal(a1-3)]Gal(b1-4)[Fuc(a1-3)]GlcNAc(b1-3)GalNAc
# Outline: as §1
# [4] = target: Fuc(a1-2)[Gal(a1-4)]Gal(b1-4)GlcNAc
# Outline: as §1
# [5] = target: Fuc(a1-2)[GalNAc(a1-3)]Gal
# Outline: as §1
# [6] = target: Fuc(a1-2)[GalNAc(a1-3)]Gal(b1-3)GalNAc(a1-3)[Fuc(a1-2)]Gal(b1-4)GlcNAc
# Outline: as §1
# [7] = target: Fuc(a1-2)[GalNAc(a1-3)]Gal(b1-3)GlcNAc
# Outline: as §1
# [8] = target: Fuc(a1-2)[GalNAc(a1-3)]Gal(b1-3)GlcNAc(b1-2)Man(a1-3)[Fuc(a1-2)[GalNAc(a1-3)]Gal(b1-3)GlcNAc(b1-2)Man(a1-6)]Man(b1-4)GlcNAc(b1-4)GlcNAc
# Outline: as §1
# [9] = target: Fuc(a1-2)[GalNAc(a1-3)]Gal(b1-3)GlcNAc(b1-2)Man(a1-3)[Fuc(a1-2)[GalNAc(a1-3)]Gal(b1-3)GlcNAc(b1-2)Man(a1-6)]Man(b1-4)GlcNAc(b1-4)[Fuc(a1-6)]GlcNAc
# Outline: as §1
# [10] = target: Fuc(a1-2)[GalNAc(a1-3)]Gal(b1-3)GlcNAc(b1-3)GalNAc
# Outline: as §1
# [11] = target: Fuc(a1-2)[GalNAc(a1-3)]Gal(b1-3)GlcNAc(b1-6)GalNAc
# Outline: as §1
# [12] = target: Fuc(a1-2)[GalNAc(a1-3)]Gal(b1-4)Glc
# Outline: as §1
# [13] = target: Fuc(a1-2)[GalNAc(a1-3)]Gal(b1-4)GlcNAc
# Outline: as §1
# [14] = target: Fuc(a1-2)[GalNAc(a1-3)]Gal(b1-4)GlcNAc(b1-2)Man(a1-3)[Fuc(a1-2)[GalNAc(a1-3)]Gal(b1-4)GlcNAc(b1-2)Man(a1-6)]Man(b1-4)GlcNAc(b1-4)GlcNAc
# Outline: as §1
# [15] = target: Fuc(a1-2)[GalNAc(a1-3)]Gal(b1-4)GlcNAc(b1-2)Man(a1-3)[Fuc(a1-2)[GalNAc(a1-3)]Gal(b1-4)GlcNAc(b1-2)Man(a1-6)]Man(b1-4)GlcNAc(b1-4)[Fuc(a1-6)]GlcNAc
# Outline: as §1
# [16] = target: Fuc(a1-2)[GalNAc(a1-3)]Gal(b1-4)GlcNAc(b1-3)Gal(b1-4)GlcNAc
# Outline: as §1
# [17] = target: Fuc(a1-2)[GalNAc(a1-3)]Gal(b1-4)GlcNAc(b1-3)Gal(b1-4)GlcNAc(b1-3)Gal(b1-4)GlcNAc
# Outline: as §1
# [18] = target: Fuc(a1-2)[GalNAc(a1-3)]Gal(b1-4)GlcNAc(b1-3)GalNAc
# Outline: as §1
# [19] = target: Fuc(a1-2)[GalNAc(a1-3)]Gal(b1-4)[Fuc(a1-3)]GlcNAc
# Outline: as §1
# [20] = target: Fuc(a1-2)[GalNAc(a1-3)]Gal(b1-4)[Fuc(a1-3)]GlcNAc(b1-3)GalNAc
# Outline: as §1
# [21] = target: Fuc(a1-2)[GalNAc(a1-4)]Gal(b1-4)GlcNAc
# Outline: as §1
# [22] = target: Fuc(a1-2)[GalNAc(b1-3)]Gal
# Outline: as §1
# Fuc(a1-3)GlcNAc = target: Fuc(a1-3)GlcNAc
# Outline: as §1
# [23] = target: Fuc(a1-3)[Gal(b1-4)]Glc6S
# Outline: as §1
# [24] = target: Fuc(a1-3)[Gal(b1-4)]GlcNAc
# Outline: as §1
# [25] = target: Fuc(a1-3)[Gal(b1-4)]GlcNAc(b1-2)Man
# Outline: as §1
# [26] = target: Fuc(a1-3)[Gal(b1-4)]GlcNAc(b1-2)Man(a1-3)[Fuc(a1-3)[Gal(b1-4)]GlcNAc(b1-2)Man(a1-6)]Man(b1-4)GlcNAc(b1-4)GlcNAc
# Outline: as §1
# [27] = target: Fuc(a1-3)[Gal(b1-4)]GlcNAc(b1-2)Man(a1-3)[Fuc(a1-3)[Gal(b1-4)]GlcNAc(b1-2)Man(a1-6)]Man(b1-4)GlcNAc(b1-4)[Fuc(a1-6)]GlcNAc
# Outline: as §1
# [28] = target: Fuc(a1-3)[Gal(b1-4)]GlcNAc(b1-3)Gal(b1-3)[Fuc(a1-4)]GlcNAc
# Outline: as §1
# [29] = target: Fuc(a1-3)[Gal(b1-4)]GlcNAc(b1-3)GalNAc
# Outline: as §1
# [30] = target: Fuc(a1-3)[Gal(b1-4)]GlcNAc(b1-4)Gal(b1-4)[Fuc(a1-3)]GlcNAc
# Outline: as §1
# [31] = target: Fuc(a1-3)[Gal(b1-4)]GlcNAc(b1-4)Gal(b1-4)[Fuc(a1-3)]GlcNAc(b1-4)Gal(b1-4)[Fuc(a1-3)]GlcNAc
# Outline: as §1
# [32] = target: Fuc(a1-3)[Gal(b1-4)]GlcNAc(b1-6)GalNAc
# Outline: as §1
# [33] = target: Fuc(a1-3)[Gal(b1-4)]GlcNAc(b1-6)[Gal(b1-3)GlcNAc(b1-3)]Gal(b1-4)Glc
# Outline: as §1
# [34] = target: Fuc(a1-3)[Gal(b1-4)]GlcNAc(b1-6)[Neu5Ac(a2-3)Gal(b1-3)]GalNAc
# Outline: as §1
# [35] = target: Fuc(a1-3)[Gal(b1-4)]GlcNAc6S
# Outline: as §1
# [36] = target: Fuc(a1-3)[Gal3S(b1-4)]GlcNAc
# Outline: as §1
binder,measurement,setting,value
B1,glycan array binding signal (z-score),[1],-0.32
same,glycan array binding signal (z-score),[2],0.086
same,glycan array binding signal (z-score),[3],-0.037
same,glycan array binding signal (z-score),[4],-0.051
same,glycan array binding signal (z-score),[5],-0.204
same,glycan array binding signal (z-score),[6],-0.113
same,glycan array binding signal (z-score),[7],-0.073
same,glycan array binding signal (z-score),[8],-0.107
same,glycan array binding signal (z-score),[9],0.29
same,glycan array binding signal (z-score),[10],0.198
same,glycan array binding signal (z-score),[11],-0.274
same,glycan array binding signal (z-score),[12],-0.268
same,glycan array binding signal (z-score),[13],-0.203
same,glycan array binding signal (z-score),[14],-0.259
same,glycan array binding signal (z-score),[15],0.011
same,glycan array binding signal (z-score),[16],-0.302
same,glycan array binding signal (z-score),[17],0.565
same,glycan array binding signal (z-score),[18],-0.163
same,glycan array binding signal (z-score),[19],-0.145
same,glycan array binding signal (z-score),[20],0.393
same,glycan array binding signal (z-score),[21],-0.214
same,glycan array binding signal (z-score),[22],-0.108
same,glycan array binding signal (z-score),Fuc(a1-3)GlcNAc,-0.069
same,glycan array binding signal (z-score),[23],-0.308
same,glycan array binding signal (z-score),[24],-0.108
same,glycan array binding signal (z-score),[25],-0.36
same,glycan array binding signal (z-score),[26],-0.104
same,glycan array binding signal (z-score),[27],0.076
same,glycan array binding signal (z-score),[28],-0.121
same,glycan array binding signal (z-score),[29],0.2
same,glycan array binding signal (z-score),[30],-0.071
same,glycan array binding signal (z-score),[31],-0.274
same,glycan array binding signal (z-score),[32],-0.017
same,glycan array binding signal (z-score),[33],-0.363
same,glycan array binding signal (z-score),[34],-0.151
same,glycan array binding signal (z-score),[35],-0.001
same,glycan array binding signal (z-score),[36],-0.068
